From PMC4336329 (PLoS ONE, 2015) come the findings set out here.

Each structure is given as a SMILES string. Hit rate of the full screen: of about 310,000 compounds, about 14,000 (4.5%) showed an effect of 50% or more. The effect is printed as a negative number. The list shows a part of the results.
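Further: peak tail current of the secondary pulse compared with the same well before compound.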

For the assay, the target named is human ether-à-go-go-related gene (hERG) potassium channel (human, UniProt Q12809). Put plainly: primary screen, population patch clamp on CHO cells stably expressing hERG.
human ether-à-go-go-related gene (hERG) potassium channel, sequence (Q12809 whole entry, looked up): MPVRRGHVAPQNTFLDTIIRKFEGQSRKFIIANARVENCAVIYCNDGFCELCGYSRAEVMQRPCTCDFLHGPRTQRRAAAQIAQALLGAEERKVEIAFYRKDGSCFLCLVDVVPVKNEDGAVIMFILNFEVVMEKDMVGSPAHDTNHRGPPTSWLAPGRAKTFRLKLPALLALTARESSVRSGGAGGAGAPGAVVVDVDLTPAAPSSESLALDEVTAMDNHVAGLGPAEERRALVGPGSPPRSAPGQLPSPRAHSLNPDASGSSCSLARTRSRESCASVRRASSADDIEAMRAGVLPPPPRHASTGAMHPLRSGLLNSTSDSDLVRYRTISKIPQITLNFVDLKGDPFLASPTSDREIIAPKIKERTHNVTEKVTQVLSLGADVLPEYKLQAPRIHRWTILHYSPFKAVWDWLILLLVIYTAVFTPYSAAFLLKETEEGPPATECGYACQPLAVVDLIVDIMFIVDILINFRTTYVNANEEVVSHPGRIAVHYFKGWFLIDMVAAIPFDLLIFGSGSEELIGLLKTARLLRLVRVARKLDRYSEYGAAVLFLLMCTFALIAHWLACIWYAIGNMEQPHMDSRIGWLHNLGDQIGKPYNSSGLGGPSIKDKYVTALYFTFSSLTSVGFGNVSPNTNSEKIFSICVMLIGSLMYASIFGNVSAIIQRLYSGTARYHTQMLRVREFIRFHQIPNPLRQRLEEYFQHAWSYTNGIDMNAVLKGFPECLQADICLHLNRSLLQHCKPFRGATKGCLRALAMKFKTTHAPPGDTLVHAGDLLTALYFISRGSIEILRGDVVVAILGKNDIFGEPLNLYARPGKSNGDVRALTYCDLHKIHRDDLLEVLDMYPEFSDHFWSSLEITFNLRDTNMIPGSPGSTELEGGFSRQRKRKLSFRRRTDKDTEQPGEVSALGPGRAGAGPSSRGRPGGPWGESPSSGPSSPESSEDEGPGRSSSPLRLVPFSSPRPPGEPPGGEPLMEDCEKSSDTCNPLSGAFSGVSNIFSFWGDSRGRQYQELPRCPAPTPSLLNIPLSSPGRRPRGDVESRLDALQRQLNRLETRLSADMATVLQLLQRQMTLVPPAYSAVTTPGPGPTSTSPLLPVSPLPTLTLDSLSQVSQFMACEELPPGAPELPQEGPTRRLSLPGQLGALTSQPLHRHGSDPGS
For `CC(=O)Oc1ccc2c(=O)c(-c3ccccc3)coc2c1`, the “hERG current change (%, negative = inhibition) at 10uM” value was found to be 3.03%.
For the molecule `Cc1ccc2nc(SCC(=O)Nc3cc(C)on3)[nH]c2c1`, the “hERG current change (%, negative = inhibition) at 10uM” value is -3.32%.
Take `CCO[C@@H]1OC(C(=O)NCc2ccccc2)=C[C@H](C2CC2)[C@H]1CCCO`: the “hERG current change (%, negative = inhibition) at 10uM” value is given as -5.78%.
Turning to `NC(=O)c1cccc(-c2noc(-c3ccccc3F)n2)c1`, the “hERG current change (%, negative = inhibition) at 10uM” value came out at 6.07%.
For `Cc1noc(C)c1-c1nnc(-c2ccc(OC(F)(F)F)cc2)o1`, the “hERG current change (%, negative = inhibition) at 10uM” value was -10.7%.
With `O=C(NC(=S)NCC1CCCO1)c1ccc(Br)o1` (stereo not shown) the figure was 2.62%; with `COc1ccc(-c2cc(C)no2)cc1S(=O)(=O)N(C)c1ccc(C)cc1`, -29.6%; with `O=C(c1ccccc1)c1cc(F)c(N2CCOCC2)cc1Cl`, -10.4%.
Consider `COCCn1c(SCC(=O)N2CCCCCC2)nc2c(c1=O)SCC2`, for which the “hERG current change (%, negative = inhibition) at 10uM” value is -19.9%.
In the case of `O=C(C1=C[C@H](c2ccc3c(c2)OCO3)C[C@H](OCc2ccc(CO)cc2)O1)N1CCN(Cc2ccc3c(c2)OCO3)CC1` it was -17.2%; in that of `Cc1ccccc1NS(=O)(=O)c1ccc(C(=O)N2CCCC2)cc1`, 12%.
With `Clc1ccc(CSc2ncn(-c3ccccc3)n2)cc1` the figure was 0.168%; with `C#CCSc1[nH]c(=O)cc(C)c1C#N`, 19.3%.
Consider `COC(=O)c1ccc(NC(=O)c2cc[n+](Cc3ccccc3)cc2)cc1.[Cl-]`, for which the “hERG current change (%, negative = inhibition) at 10uM” value is recorded as 19%.
For the molecule `COC(=O)c1ccc(COn2c(=O)c(C)[n+]([O-])c3ccccc32)cc1`, the “hERG current change (%, negative = inhibition) at 10uM” value is -3%.
In the case of `CCOc1ncccc1C(=O)Nc1ccc(Cl)cc1` it was -3.29%; in that of `COc1ccc(CCNC(=O)CSc2cn(Cc3cccc(C)c3)c3ccccc23)cc1OC`, 4.67%.
In the case of `COc1ccc(Nc2nc(-c3ccncc3)nc3ccccc23)cc1` it was 13.1%; in that of `CC(NC(=S)Nc1c(Cl)cccc1OC(F)F)C(C)(C)C` (stereo not shown), -2.76%; in that of `COc1ccc(C(C)=O)cc1CN1C(=O)NC(c2ccccc2)(c2ccccc2)C1=O`, 0.9%.
With `COc1nc(N)c(S(=O)(=O)c2ccccc2)cc1C#N` the figure was -19%.
Consider `COc1ccc(/C=C/C(=O)N2CCN(c3ccccn3)CC2)cc1OC`, for which the “hERG current change (%, negative = inhibition) at 10uM” value is reported as -9.7%.
In the case of `C#CCNC(=O)C1=C[C@@H](c2ccc3c(c2)OCO3)C[C@@H](OCc2ccc(CO)cc2)O1` it was -11.2%; in that of `Cc1ccc(S(=O)(=O)N(C)C)cc1-n1c(SCC(=O)Nc2ccc(F)cc2)nc2ccccc2c1=O`, -4.96%.
With `Cc1ccc(CCNC(=O)c2sc3nc4n(c(=O)c3c2C)CCC4)cc1` the figure was -26.7%; with `CC1CN(C(=O)C2CCCC2)C(C)CN1C(=O)C1CCCC1` (stereo not shown), 12.8%; with `COc1ccccc1NC(=O)c1sc2ncn(Cc3ccccc3C)c(=O)c2c1C`, 10.4%.
Regarding `CCOC(=O)c1c(C)[nH]c(C)c1C(=O)COC(=O)c1ccc(S(=O)(=O)N(CC)CC)cc1`, the “hERG current change (%, negative = inhibition) at 10uM” value is on record as -3.99%.
With `COc1ccccc1NC(=O)CN1CCN(CC(=O)Nc2ccc3c(c2)OCO3)CC1` the figure was -72%; with `CCOC(=O)C1(CCc2ccccc2)CCN(Cc2cnc(N(C)C)s2)CC1`, -83%; with `CCN(CC)C(=O)c1c(C)[nH]c(=S)c(C#N)c1-c1ccco1`, 14.6%.
With `COc1cc(CNc2ccc(N3CCCC3)cc2)ccc1OCc1ccccc1F` the figure was 31.8%; with `O=C(Nc1ccccc1C(=O)N1CCN(Cc2ccccc2)CC1)c1ccccc1`, -5.07%.
In the case of `CC1(C)Oc2ccc(/C=C/C(=O)N3CCOCC3)c(O)c2C(N2CCOCC2)C1O` (stereo not shown) it was 1.68%.
Consider `O=C(NNC(=O)c1ccc2ccccc2c1O)c1ccccc1Cl`, for which the “hERG current change (%, negative = inhibition) at 10uM” value was determined as 4.02%.
In the case of `O=C(CC(NC(=O)c1ccccc1)c1ccccc1)Nc1cccc2ccccc12` (stereo not shown) it was 24.1%; in that of `Cc1ccc(NC(=O)Cn2cnc([N+](=O)[O-])c2)cc1C`, 2.82%; in that of `Cc1noc(C)c1COC(=O)CCC(=O)c1ccc(F)cc1`, 0.0774%.
In the case of `CCNc1ccc(Br)cc(C(=O)/C=C/c2c(Cl)cccc2Cl)c1=O` it was 3.03%; in that of `COc1cccc(C2c3c(oc4cc(C)c(C)cc4c3=O)C(=O)N2CCCN(C)C)c1` (stereo not shown), -25.9%.
Regarding `CCOc1ccc(-c2nc(CSCC(=O)NCc3ccco3)c(C)o2)cc1`, the “hERG current change (%, negative = inhibition) at 10uM” value is reported as -20.7%.
In the case of `CCOC(=O)C1(C)/C(=N/Nc2ccccc2OC)C(=O)C(=O)N1c1ccccc1` (stereo not shown), the “hERG current change (%, negative = inhibition) at 10uM” value came out at 4.48%.
Turning to `O=C(O)C1Nc2ccc(C(F)(F)F)cc2C2OCCC12` (stereo not shown), the “hERG current change (%, negative = inhibition) at 10uM” value is listed as 6.25%.
